According to patent publication US20250041455A1:

Molecular target: mf TFRC ecto-mmh (REGN2054) (monkey (cyno)) (UniProt H9EXL1)
Test: SPR Biacore; anti-hFc-captured mAb; 100 nM mfTfR-mmh; 25C

- 100 nM Ag Bound (RU): 11 RU
B1: REGN17510 (H1H12839B) (antibody, human IgG1, kappa, V domains shown)
VH: QVQLVESGGGVVQPGRSLRLSCAASGFPFSNYVMYWVRQAPGKGLEWVALIFFDGKKNYHADSVKGRFTITRDNSKNMLYLQMNSLRPEDAAVYYCAKIHCPNGVCYKGYYGMDVWGQGTTVTVSS
VL: [here about 100 residues without letters]
